Reference: PubChem BioAssay AID624296 (National Center for Advancing Translational Sciences (NCATS), 2012)
In all, about 350,000 compounds went through this assay and about 9,900 (2.8%) were called active. Inconclusive results, whose numbers are uncertain, are shown with a selection of clear calls. Calls follow the shape of the dose curve; as a rule, active = well fitted activation curve with a large enough effect; inconclusive = small, poorly fitted or top-dose-only effect; inactive = no such curve, though single readings can be large or run the other way. No potency is given beside an inconclusive call; the fits are too rough.

test: A quantitative high throughput screen for small molecules that induce DNA re-replication in MCF 10a normal breast cells.; also: nearly all actives have a fitted effect of over 50% in size; conditions: MCF 10A DNA re-replication, Hoechst nuclear intensity, 48 h; series mostly up to 46.1 µM
Potency is read from the fitted curve at half-maximal effect; tags tell the direction and shape of the fitted curve.

| SMILES | Potency |
| --- | --- |
| O=C(NCc1cccs1)C1CC(c2ccccc2O)=NO1 (centres undefined) | active: 18.4 µM |
| CN(C)c1ccc(NC(=O)/C=C/c2c(Cl)cccc2Cl)cc1 | active: 16.4 µM |
| CC(=O)N1c2ccc(S(=O)(=O)N3CCCC3C(=O)Nc3cccc(F)c3)cc2CC1C (centres undefined) | inactive |
| CN1CCN(CC(=O)N2CCn3c4c(c5cc(C6CCCCC6)ccc53)CCCC42)CC1 (centres undefined) | inconclusive [activator, partial curve] |
| COc1ccc(NC(=O)C/C(C)=N/NC(=O)c2ccco2)c([N+](=O)[O-])c1 | inactive |
| Cc1cccc(C)c1NC(=O)CN(C)CC(=O)Nc1ccccc1Oc1ccccc1 | inconclusive [activator, single point] |
| O=C1CN(C(=O)COc2ccc(Cl)c(Cl)c2)c2ccccc2N1 | inactive |
| NC(=O)c1ccccc1NC(=O)CCc1ccccc1 | inactive |
| CN(CC(=O)Nc1ccc(Cl)c(C(F)(F)F)c1)C(=O)/C=C/c1cccs1 | inactive |
| CN(Cc1cccs1)c1ncnc2sccc12 | inactive |
| Cc1cc(C)c2nc(NNC(=O)c3ccc(S(=O)(=O)N4CC(C)CC(C)C4)cc3)sc2c1 (centres undefined) | inconclusive [activator, single point] |
| CC(C)c1ccc(-c2nc(N3CCCC3)nc3n[nH]c(N)c23)cc1 | inconclusive [activator, partial curve, poor fit] |
| Cc1ccc(C)c(NC(=O)CSc2nnc(-c3cc(C)[nH]n3)n2N)c1 | inconclusive [activator, full curve, poor fit] |
| C[C@H](CO)N1C[C@H](C)[C@@H](CN(C)C(=O)Nc2ccc3c(c2)OCO3)Oc2ccc(NS(=O)(=O)c3ccc(F)cc3)cc2C1=O | inconclusive [activator, full curve, poor fit] |
| COc1ccc(-c2csc(=NCCO)n2-c2ccccc2)cc1 | inconclusive [activator, partial curve, poor fit] |
| O=C(N/N=C/c1ccccc1F)c1ccc(COc2ccccc2Cl)o1 | inconclusive [activator, single point] |
| Cc1[nH]c(=O)[nH]c(=O)c1S(=O)(=O)N(C)Cc1ccccc1 | inactive |
| Cc1cc2cc(C=O)c(Cl)nc2cc1C | inactive |
| CC1(C)OC(c2ccccc2)=C/C(=C/C=Nc2ccccc2)O1 | inconclusive [activator, single point] |
| CCOC(=O)C(=O)Nc1ccccc1C(=O)NCc1ccccc1 | inactive |
| CC1=NN(c2ccccc2)C(=O)C1N=Nc1ccc(N)cc1 (centres undefined) | inconclusive [activator, full curve, poor fit] |
| CCCCCCSc1ccc([C@@H]2[C@H]3C(=O)N(C)C(=O)[C@H]3[C@]3(C(=O)OC)CCCCN23)cc1OC | active: 14.6 µM |

| SMILES | Potency |
| --- | --- |
| CC(C)c1nc(N2CCOCC2)c(C#N)c2c1CCC2 | inconclusive [activator, single point] |
| CCOc1ccc(-c2nnn(CC(=O)NCc3ccccc3)n2)cc1 | inconclusive [activator, single point] |
| CC1(C)Cc2c(sc(/N=C/N3CCCC3)c2C#N)C(C)(C)N1 | inactive |
| Cc1nc(Sc2nnnn2C)c2c3c(sc2n1)CCC3 | active: 1.46 µM |
| O=C(CNS(=O)(=O)c1ccccc1)N1CCc2ccccc2C1 | inconclusive [activator, partial curve, poor fit] |
| COc1ccc(NC(=O)CCc2nnc3ccc(N4CCN(c5cccc(OC)c5)CC4)nn23)cc1 | inactive |
| CC(C)(C)[C@H]1C=C(C(=O)N2CCN(Cc3ccccc3)CC2)O[C@@H](OCc2ccc(CO)cc2)C1 | inconclusive [activator, single point] |
| CCOC(=O)N1CCC(N(CCCOC)C(=O)Nc2cccc(OC)c2)CC1 | inactive |
| NC(=O)CC(NC(=O)Cc1ccc(Br)cc1)c1ccc(N2CCC(Cc3ccccc3)CC2)c([N+](=O)[O-])c1 (centres undefined) | inconclusive [activator, partial curve, poor fit] |
| Cn1c(CNC(=O)c2ccccc2)nnc1SCC(=O)N1CCN(c2ccccc2)CC1 | inconclusive [activator, partial curve, poor fit] |
| COc1ccc(/C=C2\CN(Cc3ccccc3)C/C(=C\c3ccc(OC)c(O)c3)C2=O)cc1O | inconclusive [activator, full curve, poor fit] |
| Fc1ccc(N2N=C(c3cccs3)CC2c2ccco2)c(F)c1 (centres undefined) | active: 7.31 µM |
| COCc1cc(C)n(CC(=O)Nc2ccc3c(c2)OCO3)c(=O)c1C#N | inconclusive [activator, single point] |
| OC1(c2cccc(C(F)(F)F)c2)CCN(c2ncnc3c2[nH]c2ccc(F)cc23)CC1 | inconclusive [activator, single point] |
| Cc1ccc(S(=O)(=O)N2CCCCC2CCNC(=O)C(=O)Nc2ccccc2F)cc1 (centres undefined) | inactive |
| COc1ccc(-c2c(=O)n(OCc3ccccn3)c3ccccc3[n+]2[O-])cc1OC | inactive |
| COc1ccc(CN(C(=O)c2nsc(Cl)c2Cl)C(C(=O)NC2CCCC2)c2ccc(C)cc2)cc1 (centres undefined) | inconclusive [activator, partial curve, poor fit] |
| CCOC(=O)CCc1c(C(=O)OCC)[nH]c(CC)c1C(=O)OCc1ccccc1 | inconclusive [activator, single point] |
| CCOC(=O)Cn1c(=NC(=O)CSC(C)=O)sc2cc(OC)ccc21 | inconclusive [activator, single point] |
| O=C(O)C1=C[C@@H](c2ccc(C(F)(F)F)cc2)C[C@@H](OCCCCO)O1 | inconclusive [activator, partial curve, poor fit] |
| CCCC(=O)N(Cc1cc2ccccc2[nH]c1=O)c1ccccc1OC | inactive |
| CC(C)(C)c1ccc(C(=O)CCC(=O)NCc2ccccc2)cc1 | inconclusive [activator, single point] |
